From PubChem BioAssay AID686978 (National Center for Advancing Translational Sciences (NCATS), 2013)
In all, about 420,000 compounds went through this assay and about 64,000 (15%) were called active. The inconclusive results got no clear call from the source; some entries with a clear call stand among them for comparison. The call rests on the fitted dose curve; in most records, active means well fitted inhibition curve with a large enough effect; inconclusive means small, poorly fitted or top-dose-only effect; inactive means flat fitted curve, though single readings scatter. No potency is given beside an inconclusive call; the fits are too rough.

Assay: qHTS for Inhibitors of human tyrosyl-DNA phosphodiesterase 1 (TDP1): qHTS in cells in absence of CPT; further: nearly all actives have a fitted effect of over 55% in size
Conditions: DT40 Tdp1-/- hTDP1 cells, no CPT, ATP luminescence, 48 h; activity change, negative = growth inhibition: at 46.2 µM (top of the series) unless noted
Procedure, shortened: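 Luminescent ATP content (CellTiter-Glo) served as the growth readout. Knockout chicken DT40 cells expressing human TDP1 were exposed to compounds without camptothecin for a minimum 48 hr at 37 °C.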
On the % scale 0 is the no-effect control and ±100 the full control effect; potency means the concentration at half of the fitted maximal effect; tags describe the fitted curve by direction and shape.

Row | Compound | Potency | activity change, negative = growth inhibition
1 | CC/C(O)=C1\C(=O)CC(c2ccccc2)CC1=NCCc1c(C)[nH]c2ccc(C)cc12 (centres undefined) | active: 23.1 µM | 
2 | CSC1=C(C#N)C(c2ccccc2C)C(C#N)=C(N)N1 (centres undefined) | inconclusive [inhibitor, partial curve, poor fit] | 
3 | O=C(NC1CC(=O)N(c2cccc(F)c2)C1)C(c1ccccc1)c1ccccc1 (centres undefined) | inconclusive [inhibitor, single point] | 
4 | O=S(=O)(NCCc1ccc(F)cc1)c1ccc(F)cc1Br | inactive | 
5 | O=C(NCCCNC(=O)c1cnccn1)c1cccc(F)c1 | inactive | 
6 | CCc1cc2c(-c3ccccc3)cc(=O)oc2c2c1OCN(Cc1ccc(F)cc1)C2 | inconclusive [inhibitor, full curve, poor fit] | 
7 | Cc1ccc(-c2nc3ccccc3[nH]c2=O)cc1 | inactive | 
8 | Cc1ccnc(NS(=O)(=O)c2ccc(NC(=O)c3cc(-c4ccc(Br)cc4)nc4ccccc34)cc2)n1 | inconclusive [inhibitor, single point] | 
9 | C[C@H](CCC(=O)O)[C@H]1CC[C@@H]2[C@H]3CC[C@H]4C[C@H](O)CC[C@]4(C)[C@@H]3CC[C@@]21C | inactive | 
10 | O=S(=O)(NCc1cccs1)NCc1ccccc1F | inactive | 
11 | CCC1(C2C=COC=C2)NC(=O)NC1=O (centres undefined) | inactive | 
12 | Cc1ccc(NC(=O)OC(C)N2CCCCC2)cc1NC(=O)OC(C)N1CCCCC1 (centres undefined) | inconclusive [inhibitor, single point] | 
13 | CCCCN1CC(COCc2ccccc2)Oc2cccc(Oc3ccc(C)cc3)c2S1(=O)=O (centres undefined) | active: 7.31 µM | 
14 | COc1ccc(C2CC3(O)NC(=O)C(C#N)(C3C)C2(C#N)C#N)cc1 (centres undefined) | inactive | 
15 | COc1ccc(CCN(C)C2CCCN(S(=O)(=O)c3ccccc3)C2)cc1OC (centres undefined) | inactive | 
16 | Oc1cccc(-c2ccc3nccn3c2)c1 | inconclusive [inhibitor, single point] | 
17 | CS/C(=N\S(=O)(=O)c1cccs1)Nc1ccc(F)c(Cl)c1 | inconclusive [inhibitor, partial curve, poor fit] | 
18 | CC(C)C(NC(=O)c1ccoc1)c1nnc2n1CCN(C(=O)/C=C/c1ccc(F)cc1)CC2 (centres undefined) | inactive | 
19 | CN(C(=S)Nc1ccc(SC(F)F)cc1)C(c1ccccc1)c1ccccc1 | inconclusive [inhibitor, single point] | 
20 | COc1ccccc1-c1ccc(/C=C2/C=C(CC(C)C)OC2=O)o1 | inconclusive [inhibitor, single point] | 
21 | Cc1ccc(Nc2cc(C)nc3nc(C)nn23)c(C)c1 | inconclusive [inhibitor, single point] | 
22 | CCC1(c2ccccc2)SCC(c2ccccc2)=NC1=O (centres undefined) | inconclusive [inhibitor, single point] | 
23 | COc1ccc(NCc2cc(=O)oc3cc(NC(C)=O)ccc23)cc1 | inactive | 
24 | COC(=O)c1ccccc1NC(=O)c1ccc2c(=O)n3c(nc2c1)CCCCC3 | inconclusive [inhibitor, partial curve] | 
25 | Cc1ccc2sc(NNC(=O)c3ccc4c(c3)OCCO4)nc2c1C | inactive | 

Row | Compound | Potency | activity change, negative = growth inhibition
26 | CCC(Oc1ccccc1)C(=O)Nc1ccc(OCc2cc(=O)n3ccccc3n2)cc1 (centres undefined) | inconclusive [inhibitor, single point] | 
27 | COc1ccc(CCn2c(C)cc(C(=O)COC(=O)c3ccc(O)cc3O)c2C)cc1 | inconclusive [inhibitor, single point] | 
28 | CC(Sc1nccn1C)C(=O)c1ccc(Br)cc1 (centres undefined) | inconclusive [inhibitor, partial curve] | 
29 | O=C(Cc1ccccc1F)OCC(=O)N1CCc2ccccc21 | inactive | 
30 | Cc1nc(-c2ccc(S(=O)(=O)N3CCN(CCc4ccccc4)CC3)s2)cs1 | inconclusive [inhibitor, single point] | 
31 | Cc1ccc(NC(=O)CCN2C(=O)NC(C)(C)C2=O)cc1F | inactive | 
32 | CN(C)c1ccc(Cc2ccc(N(C)C)cc2)cc1 |  | inconclusive: -32.4% [inhibitor]
33 | COC(CNC(=O)C1CCCN(S(=O)(=O)c2ccc3c(c2)oc(=O)n3C)C1)OC (centres undefined) | inactive | 
34 | CN(Cc1ccccc1)C(=O)CN1CCN(S(=O)(=O)c2ccc(Cl)c(Cl)c2)CC1 | active: 18.4 µM | 
35 | COc1ccccc1NC(=O)c1ccc(NC(=O)COC(=O)C(C)C)cc1 | inconclusive [inhibitor, single point] | 
36 | O=[N+]([O-])c1ccc2c(c1)C=C1CCCCC1(N1CCCC1)O2 (centres undefined) | inactive | 
37 | Cn1c(=O)[nH]c(NCCc2ccc(O)cc2)c([N+](=O)[O-])c1=O | inactive | 
38 | COc1ccc(-c2ncc(CN3CCC(CO)(Cc4cccc(OC)c4)CC3)cn2)cc1 | inconclusive [inhibitor, single point] | 
39 | O=C(NCCc1ccc(C(F)(F)F)cc1)c1ccc2c(c1)OCO2 | inactive | 
40 | COC(=O)c1cc(C(=O)OCC(=O)N(C)c2ccccc2)cc([N+](=O)[O-])c1 | inactive | 
41 | c1ccc(N2N=C(c3cccs3)CC2c2ccco2)cc1 (centres undefined) | inactive | 
42 | O=S(=O)(c1ccc(Cl)cc1)c1nc(-c2ccccc2)oc1N1CCN(c2ccccc2)CC1 | inconclusive [inhibitor, single point] | 
43 | O=C(Nc1ccc(Br)cc1)c1cccc(C(=O)Nc2ccc(Br)cc2)c1 | active: 20.6 µM | 
44 | CCOC(=O)C1CCCN(CCC(=O)Nc2cc(C)cc(C)c2)C1 (centres undefined) | inconclusive [inhibitor, single point] | 
45 | C/C(=N\NC(=O)c1ccc(Cn2cc([N+](=O)[O-])cn2)o1)c1cccc(NC(=O)C(C)C)c1 | inconclusive [inhibitor, partial curve] | 
46 | CCOc1ccc(S(=O)(=O)N2CCOCC2)cc1NC(=O)CN1C(=O)NC(CC)(c2ccccc2)C1=O (centres undefined) | inactive | 
47 | CCOC(=O)c1cccc(NC(=O)CSc2nc3cccnc3n2C)c1 | active: 16.4 µM | 
48 | O=C(NCC1CCCO1)c1ccc(Oc2ccc([N+](=O)[O-])cc2Cl)cc1 (centres undefined) | inactive | 
49 | CC(C)NC(=O)/C(C#N)=C/c1cccc(NC(=O)c2ccccc2Cl)c1 | active: 14.6 µM | 
